Experimental data reported in PubChem BioAssay (NCI).
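Protocol summary: plate cells (96-well), add compound at 5 concentrations, incubate 48 h, interpolate endpoints linearly. GI50 marks 50% less growth. At the TGI there is no net growth.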

Each molecule was assayed on NCI-H322M lung (assay: DTP human tumour cell line panel, 48 h).

SMILES | TGI | GI50
CC(=O)N[C@@H](Cc1ccc(O)cn1)C(=O)NCc1ccc(Cl)cc1 | > 100 µM | –
CC1(C)N=C(C(N)=O)c2[nH]cnc2N1 | > 100 µM | –
CC(C)(O)C1COC2=C1C(=O)c1ccccc1C2=O (stereo not given) | > 100 µM | –
[O]=[Sn]([CH]1CCCCC1)[CH]1CCCCC1 | 2.11 µM | 0.666 µM
O=C1Cc2cc3ccccc3nc2-c2ccccc2N1 | 84.4 µM | –
C=CCNC(=S)NNC(=O)c1c(C)nc2sccn12 | > 100 µM | –
COC(=O)c1c(C(=O)OC)c(-c2ccccc2)n(-c2ccccc2)c(=O)c1-c1ccccc1 | > 100 µM | –
COc1ccc(-c2nc3ccccc3c(=O)[nH]2)cc1 | > 100 µM | –
COc1cc2c(c(OC)c1OC)C(=O)c1c(O)cc(C)c(OC)c1C2=O | > 100 µM | –
O=CN1CCN(c2ccc3ccc(=O)[nH]c3n2)CC1 | > 100 µM | –
Cc1c(Cl)ccc2c1NC(=O)C2(O)CC(=O)c1ccc(Cl)cc1 (stereo not given) | > 100 µM | –
Cc1nn2c(=O)c([N+](=O)[O-])c(/C=C/c3ccc(F)cc3)nc2s1 | 24.8 µM | –
CNC(=O)CCN1CCN(CC/C=C2\c3ccccc3Sc3ccc(Cl)cc32)CC1 | 29.4 µM | 14.8 µM
CC(=O)OC1CCn2c1nc1cc([N+](=O)[O-])c(C)cc12 (stereo not given) | > 100 µM | –
CCOc1ccc(C2=NN(CC)C(=O)C(C3C(=O)N(c4ccccc4)N=C3C)C2)cc1 (stereo not given) | > 100 µM | –
O=C(/C=C/c1ccc(O)c(O)c1)N1CCN(c2ccc(Cl)cc2)CC1 | > 100 µM | 21.2 µM
CC1=NN(c2nc(N)nc(CO)n2)C(C)(C)C1 | > 100 µM | –
